T1: binding of VEGF165 to VEGF R2 (Homo sapiens, UniProt P15692)
T1 construct: host or cells: insect cells, baculovirus (VEGF)
T1 sequence (P15692 27-191 isoform P15692-4): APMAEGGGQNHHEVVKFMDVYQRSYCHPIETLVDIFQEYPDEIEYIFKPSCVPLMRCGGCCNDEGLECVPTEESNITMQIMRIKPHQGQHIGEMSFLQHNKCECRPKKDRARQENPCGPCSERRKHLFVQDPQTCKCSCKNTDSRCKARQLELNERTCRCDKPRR

T2: VEGF165 (Homo sapiens, UniProt P15692)
T2 sequence (P15692 27-191 isoform P15692-4): T1 sequence (P15692 27-191 isoform P15692-4)

B1: DMS30023: DT02-K-044-085-HingeIgG1Linker-Fc-GS(TVAAPSGS)x3 Linker-DT02-K-044-085 dAb-Fc-dAb; SEQ ID NO:26 & 54 (protein)
chain: DIQMTQSPSSLSASVGDRVTITCRASQWIGPELKWYQQKPGKAPKLLIYHGSILQSGVPSRFSGSGSGTDFTLTISSLQPEDFATYYCQQYMYYPHTFGQGTKVEIKRV[human IgG1 Fc with changes not shown]GSTVAAPSGSTVAAPSGSTVAAPSGSDIQMTQSPSSLSASVGDRVTITCRASQWIGPELKWYQQKPGKAPKLLIYHGSILQSGVPSRFSGSGSGTDFTLTISSLQPEDFATYYCQQYMYYPHTFGQGTKVEIKR
modifications: DT02-K-044-085-HingeIgG1Linker-Fc-GS(TVAAPSGS)x3 Linker-DT02-K-044-085 Vh-Vk dAb-Fc-dAb nucleic acid sequence identified using molecular biology techniques.
B2: DMS30028: Vk dAb-Fc: DT02-K-085 dAb attached to N-terminus of IgG1 Fc by IgG1 Hinge linker; SEQ ID NO:164 (protein)
chain: DIQMTQSPSSLSASVGDRVTITCRASQWIGPELKWYQQKPGKAPKLLIYHGSILQSGVPSRFSGSGSGTDFTLTISSLQPEDFATYYCQQYMYYPHTFGQGTKVEIKRV[human IgG1 Fc with changes not shown]
modifications: N-terminal Fc fusion of K-044-085 DAB (IgG1 Hinge) amino acid sequence identified using molecular biology techniques.
B3: C085 Alb DOM3: C-terminal Fc fusion of K-044-085 dAb with Albumin Domain 3 derived linker (probably truncated, Alb Dom 3-TFHAD, SEQ ID NO:174) (protein)
chain: [human IgG1 Fc not shown]EVDETYVPKEFNAETFDIQMTQSPSSLSASVGDRVTITCRASQWIGPELKWYQQKPGKAPKLLIYHGSILQSGVPSRFSGSGSGTDFTLTISSLQPEDFATYYCQQYMYYPHTFGQGTKVEIKR
modifications: C-terminal Fc fusion of K-044-085 DAB (Albumin Domain 3-TFHAD) amino acid sequence identified using molecular biology techniques.
B4: C085 G4Sx3: C-terminal Fc fusion of K-044-085 dAb ((Gly4Ser)x3); SEQ ID NO:175 (protein)
chain: [human IgG1 Fc not shown]GGGGSGGGGSGGGGSDIQMTQSPSSLSASVGDRVTITCRASQWIGPELKWYQQKPGKAPKLLIYHGSILQSGVPSRFSGSGSGTDFTLTISSLQPEDFATYYCQQYMYYPHTFGQGTKVEIKR
modifications: C-terminal Fc fusion of K-044-085 DAB ((Gly4Ser)x3) amino acid sequence identified using molecular biology techniques.
B5: C085 G2Sx4: probably C-terminal Fc fusion of K-044-085 dAb ((Gly4Ser)x4); SEQ ID NO:176 (protein)
chain: [human IgG1 Fc not shown]GGGGSGGGGSGGGGSGGGGSDIQMTQSPSSLSASVGDRVTITCRASQWIGPELKWYQQKPGKAPKLLIYHGSILQSGVPSRFSGSGSGTDFTLTISSLQPEDFATYYCQQYMYYPHTFGQGTKVEIKR
modifications: C-terminal Fc fusion of K-044-085 DAB ((Gly4Ser)x4) amino acid sequence identified using molecular biology techniques.
B6: DMS30013: C-terminal Fc fusion of K-044-085 dAb (Albumin Domain 3 Linker) Fc-dAb; SEQ ID NO:16 & 44 (Fc starts AS) (protein)
chain: [human IgG1 Fc and a few adjoining residues not shown]EVDETYVPKEFNAETFTFHADDIQMTQSPSSLSASVGDRVTITCRASQWIGPELKWYQQKPGKAPKLLIYHGSILQSGVPSRFSGSGSGTDFTLTISSLQPEDFATYYCQQYMYYPHTFGQGTKVEIKR
modifications: C-terminal Fc fusion of K-044-085 DAB (Albumin Domain 3 Linker) Fc-dAb nucleic acid sequence identified using molecular biology techniques.
B7: DMS30014: C-terminal Fc fusion of K-044-085 dAb (Albumin Domain 3 Linker) Fc-dAb; SEQ ID NO:17 & 45 (protein)
chain: [human IgG1 Fc not shown]EVDETYVPKEFNAETFTFHADDIQMTQSPSSLSASVGDRVTITCRASQWIGPELKWYQQKPGKAPKLLIYHGSILQSGVPSRFSGSGSGTDFTLTISSLQPEDFATYYCQQYMYYPHTFGQGTKVEIKR
modifications: C-terminal Fc fusion of K-044-085 DAB (Albumin Domain 3 Linker) Fc-dAb nucleic acid sequence identified using molecular biology techniques.
B8: N085 Fibrx4: N-terminal Fc fusion of K-044-085 dAb ((TGLDSP)x4); SEQ ID NO:166 (protein)
chain: DIQMTQSPSSLSASVGDRVTITCRASQWIGPELKWYQQKPGKAPKLLIYHGSILQSGVPSRFSGSGSGTDFTLTISSLQPEDFATYYCQQYMYYPHTFGQGTKVEIKRTGLDSPTGLDSPTGLDSPTGLD[human IgG1 Fc and a few adjoining residues not shown]
modifications: N-terminal Fc fusion of K-044-085 DAB ((TGLDSP)x4) amino acid sequence identified using molecular biology techniques.
B9: N085 TVAAPS: N-terminal Fc fusion of K-044-085 dAb (TVAAPS Linker) dAb-Fc; SEQ ID NO:20 & 48, 167 (protein)
chain: DIQMTQSPSSLSASVGDRVTITCRASQWIGPELKWYQQKPGKAPKLLIYHGSILQSGVPSRFSGSGSGTDFTLTISSLQPEDFATYYCQQYMYYPHTFGQGTKVEIKRTVAA[human IgG1 Fc and a few adjoining residues not shown]
modifications: N-terminal Fc fusion of K-044-085 DAB (TVAAPS Linker) dAb-Fc nucleic acid sequence identified using molecular biology techniques.
B10: C085 Alb DOM2: C-terminal Fc fusion of K-044-085 dAb (Albumin Domain 2); SEQ ID NO:173 (protein)
chain: [human IgG1 Fc not shown]ENDEMPADLPSLAADFVESKDDIQMTQSPSSLSASVGDRVTITCRASQWIGPELKWYQQKPGKAPKLLIYHGSILQSGVPSRFSGSGSGTDFTLTISSLQPEDFATYYCQQYMYYPHTFGQGTKVEIKR
modifications: C-terminal Fc fusion of K-044-085 DAB (Albumin Domain 2) amino acid sequence identified using molecular biology techniques.

Experiments:
[1] = molecular target: T1, binding of VEGF165 to VEGF R2; test: VEGF R2 receptor binding assay (MSD RBA)
[2] = system: VEGF165-induced proliferation of human umbilical vein endothelial cells (HUVEC); test: Human Umbilical Cord Endothelial Cell (HUVEC) proliferation assay; format: cell-based
VEGF165 [3] = molecular target: T2, VEGF165; test: Isothermal titration calorimetry (ITC); conditions: 25° C.; 1:1 binding model; Table 10
VEGF165 [4] = molecular target: T2, VEGF165; test: Biacore T100 SPR, Protein A capture, 37° C.; format: binding; design: made in house; host or cells: HEK293 (transient transfection)
Method: (§1) The run was carried out at 37° C., using HBS-EP as the running buffer.
as §1, §1, §1, §1

[5] = Table 12A, VEGF165 32 nM to 0.03125 nM
[6] = Table 11B, VEGF165 128 nM to 0.03125 nM
[7] = Table 11A, VEGF165 16 nM to […]
[8] = Table 11C, VEGF165 128 nM to 0.03125 nM

Row | Molecule | Ka (M − 1 · s − 1) (VEGF165 [4]; [7]) | Kd (s − 1) (VEGF165 [4]; [7]) | other results
1 | B1 | – | – | EC50 ([1]; Table 8B, second data set (VEGFR2 RBA)): 5.2 ng/mL; EC50 ([1]; Table 13A, no pre-incubation): 3.23 ng/mL; EC50 compared to Bevacizumab (Avastin) ([2]; Example 27, whole 96 well plate, words only): improved; Predicted Means for Max % Inhibition, Estimate ([2]; Table 14A, weighted mixed model analysis): 69.7258%; IC50 ([2]; Table 14B, back transformed from log 10 scale, read-out: Geometric means of IC50, Estimate): 0.598 nM; KA M^−1 (VEGF165 [3]): 3.78e+07 M⁻¹; Ka (VEGF165 [4]; [5]): 1.33e+07 M⁻¹ s⁻¹; Kd (s − 1) (VEGF165 [4]; [5]): 9.13e-05 s⁻¹
2 | B2 | – | – | KA M^−1 (VEGF165 [3]): 1.45e+07 M⁻¹; Ka (M − 1 · s − 1) (VEGF165 [4]; [6]): 1.03E+07 M − 1 · s − 1; Kd (s − 1) (VEGF165 [4]; [6]): 6.60E−05 s − 1; Ka (VEGF165 [4]; [5]): 1.04e+07 M⁻¹ s⁻¹; Kd (s − 1) (VEGF165 [4]; [5]): 0.000107 s⁻¹
3 | B3 | 6.17E+06 | 8.12E−05 s − 1 | –
4 | B4 | 6.19E+06 | 1.80E−04 s − 1 | –
5 | B5 | 6.11E+06 | 1.41E−04 s − 1 | –
6 | B6 | 8.74E+06 | Too tight | –
7 | B7 | 8.68E+06 | At the | –
8 | B8 | 6.76E+06 | 4.83E−05 s − 1 | –
9 | B9 | 8.07E+06 | Too tight | Ka (M − 1 · s − 1) (VEGF165 [4]; [8]): 1.16E+07 M − 1 · s − 1; Kd (s − 1) (VEGF165 [4]; [8]): 9.08E−05 s − 1
10 | B10 | 7.52E+06 | Too tight | –

From patent US20170029494A1, “Antigen Binding Constructs” (Glaxo Group Limited, priority 2011, published 2017)
